Assay results reported in PubChem BioAssay AID493208 (National Center for Advancing Translational Sciences (NCATS), 2011).
Among all 44,000 compounds or so, about 340 (0.77%) were called active. Roughly 5% stayed inconclusive and do not appear here. Calls come from the whole dose curve; as a rule, active = well fitted inhibition curve with a large enough effect; inconclusive = small, poorly fitted or top-dose-only effect; inactive = flat fitted curve, though single readings scatter. This is one part of the list.

Assay: Acumen qHTS Assay for Inhibitors of the mTORC1 Signaling Pathway in MEF (Tsc2-/-, p53-/-) Cells: Sytravon;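 note: plate controls were DMSO for no effect and rapamycin for full effect; nearly all actives have a fitted effect of over 50% in size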
Details: phospho-rpS6 immunofluorescence/PI, 24 h; series mostly up to 38.3 µM; activity change, negative = inhibition: at the top concentration
Method in brief: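 Cell-based qHTS: Tsc2-/- p53-/- MEF, 24 h cpd, 37 °C; fix/perm, anti-phospho-S6 Alexa-488 + PI; Acumen 488 nm scan; pS6/PI ratio, % positive cells; rapamycin 7.5 nM = inhibition ref; PI count = viability.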

Activity change, negative = inhibition, inactive:
COc1ccc(-c2ccc(CNCCCSc3nnnn3C)o2)cc1Cl 0.315%
CC(C)Cc1ccc(S(=O)(=O)NCc2nc3cccnc3n2Cc2ccccc2)cc1 -7.78%
COc1ccc(-n2ncc(C(=O)N3CCN(C(=O)c4ccco4)CC3)c2C2CCN(C(=O)OC(C)(C)C)CC2)cc1 5.77%
Cc1ccc(/C=C/C(=O)N2CCC(c3nc4ccccc4o3)CC2)cc1 1.51%
COc1ccc(NC(=O)c2c(NCc3ccc(OC)c(OC)c3OC)sc3c2CCC3)c(OC)c1 -1.65%
Cc1ccc(N(C)S(=O)(=O)c2ccc(-c3coc(C)n3)cc2)cc1 -9.95%
Cc1cccc(-c2noc(-c3ccc(NCc4ccccc4)c([N+](=O)[O-])c3)n2)c1 -10.8%
CC1=C(c2ccc(C)c(C)c2)S(=O)(=O)N=C1N1CCC(C(=O)NCc2ccccc2C)CC1 -0.756%
COc1ccccc1N1CCN(CCCNC(=O)c2nnc(Cc3ccc(F)cc3Cl)o2)CC1 -9.25%
Cc1ccc(NC(=O)CN2C(=O)COc3ccc(S(=O)(=O)N4CCOCC4)cc32)cc1N(C)C -4.48%
CC1=C(C(N)=O)C(c2cccc(Br)c2)n2nc(SCc3ccccc3Cl)nc2N1 (centres undefined) -1.11%
CCc1nc2ccc(C(=O)N3CCN(c4cc(C)ccc4C)CC3)cc2nc1CC -10.8%
Cc1cc(C)c2oc(-c3ccc(NC(=O)COc4ccccc4C)cc3)nc2c1 -25.7%
CCOc1ccc(CCNC(=O)c2cc3sccc3n2CC)cc1OCC -0.391%
Fc1ccc(CSc2nncn3c2cc2occc23)c(Cl)c1 -4.33%
COc1cc(C2C(C(=O)Nc3ccc(Cl)cc3)=C(C)Nc3nc(SC)nn32)cc(OC)c1OC (centres undefined) 1.4%
Cc1nn(CC(=O)NCCc2ccccc2)c(=O)c2nn(-c3ccccc3)c(C)c12 -3.43%
COC(=O)c1nnn(CC(=O)Nc2c(C)cccc2C)c1N -0.487%
COc1cc(CN(C(=O)Nc2cccc(Cl)c2)c2ccccn2)cc(OC)c1OC -3.01%
CC(=O)c1cccc(NC(=O)CCn2nc(C)c(S(=O)(=O)N(C)C)c2C)c1 0%
CC(C)Nc1nc2c(S(=O)(=O)c3cccc(Cl)c3)nnn2c2ccsc12 -7.09%
Cc1ccc(C(=O)NCC(c2cccs2)S(=O)(=O)c2ccccc2)cc1C (centres undefined) -1.75%
CC(C)CCNC(=O)c1ccc2nc(CCc3ccccc3)oc2c1 -8.56%
CC(C)c1ccc(S(=O)(=O)N2CCN(CC(=O)Nc3ccccc3C(F)(F)F)CC2)cc1 -8.69%
CCCCC(CC)CNC(=O)CCCCn1c(=O)[nH]c2ccsc2c1=O (centres undefined) -2.51%
COC(=O)c1sc(N2C(=O)c3oc4ccc(C)cc4c(=O)c3C2c2ccc(O)c(OC)c2)nc1C (centres undefined) 6.56%
CCOC(=O)c1c(C)oc2nc(C)nc(NCCc3ccc(OC)c(OC)c3)c12 4.89%
COC(=O)c1ccc(C(=O)OC)c(NC(=O)c2c(-c3ccccc3)noc2C)c1 -14%
COc1ccc(CCNc2nc(SCc3ccccc3F)nc3ccccc23)cc1OC -13.9%
CCc1ccc(NC(=O)C2CCCN2S(=O)(=O)c2ccc3nc(-c4ccccc4)[nH]c3c2)cc1 (centres undefined) -21.6%
Cc1ccccc1NC(=O)CC1NCCNC1=O (centres undefined) 5.09%
C=CCc1ccccc1OCc1nc2ccc(C)cc2[nH]1 -18.5%
Cn1c(=O)n(CC(=O)O)c(=O)c2c1nc1n2CCCN1c1ccc(Cl)cc1 2.53%
CCOC(=O)c1c(NC(=O)CSc2nc(-c3ccc(OC)cc3)cc(C(F)(F)F)n2)sc(C)c1C 2.29%
CCN(CC)S(=O)(=O)c1ccc2c(c1)c(=O)c(C(=O)NCCc1ccccc1)cn2C -13.3%
COc1ccc(C2CC(=O)c3cnc4c(-c5ccc(F)cc5)c(C)nn4c3C2)cc1OC (centres undefined) -1.75%
Cc1ccc(CNC(=O)Cn2nc(N3CCN(c4ccccc4)CC3)ccc2=O)cc1 6.94%
Cc1cccc(N2CCN(C(=O)c3cnn(-c4ccc(F)cc4F)c3C3CCN(C(=O)OC(C)(C)C)CC3)CC2)c1C 0.561%
CCOc1ccc(NC(=O)CC2C(=O)N(c3ccccc3)C(=O)N2C2CCCC2)cc1 (centres undefined) -1.39%
Cc1ccc(NC(=O)CSc2nc3ccccc3c(=O)n2CCC(=O)NC2CCCCC2)cc1C -1.66%
COc1ccc(-n2c(SCC(=O)NCc3ccco3)nc3c([nH]c4ccccc43)c2=O)cc1 -7.16%
CCOc1ccccc1NC(=O)c1cc2cc3cc(C)ccc3nc2s1 3.92%
CCOC(=O)c1cc2c(=O)n3ccccc3nc2n(Cc2ccco2)c1=NC(=O)c1cccc(C)c1 -1.06%
CCCn1c2ccccc2c2cnn(CC(=O)N(CC)c3cc(C)ccc3C)c(=O)c21 -1.91%
Cc1ccc2oc(=O)c3cnn(CC(=O)N4CCN(c5ccccc5F)CC4)c3c2c1 1.47%
Cc1ccc(C2C=C(c3ccccc3)Nc3nc(NS(=O)(=O)c4ccc(C)cc4)nn32)cc1 (centres undefined) -2.23%
Cc1cccc(N2CCN(C(=O)C3CCN(S(=O)(=O)c4c(C)noc4/C=C/c4ccccc4F)CC3)CC2C)c1 (centres undefined) -5.34%
Cc1ccc(NC(=O)Nc2cn(C)c(=O)c3ccccc23)c(Cl)c1 -0.829%
Cc1cc(=O)n(Cc2ccccc2)c2c1c(C)nn2-c1ccccc1 -0.662%
CCc1ccccc1NC(=O)c1ccc(Cn2nc(N3CCN(c4ccccc4)CC3)ccc2=O)o1 -3.69%
Cc1nc2c3ccccc3nc(NNC(=O)CCC(=O)N3CCN(c4cc(Cl)ccc4C)CC3)n2n1 1.64%
COc1cccc(NC(=O)c2sc3nc(C)c(C(=O)Nc4ccc(C)cc4C)c(-c4ccco4)c3c2N)c1 -15.4%
COc1ccc(OCC(=O)Nc2cccc(C(=O)OCc3cc(=O)n4nc(C)sc4n3)c2)cc1 17%
CNC(=O)CCCN1C(=O)CCn2nc(-c3cn(C)c4ccccc34)cc21 -0.23%
COCc1cc(C)nc2sc(C(=O)Nc3ccc(C(C)=O)cc3)c(N)c12 -9.37%
CCC(=O)N1CCc2cc(CNS(=O)(=O)c3ccc(C(C)C)cc3)ccc21 9.97%
CCOC(=O)c1c(NC(=O)/C=C/c2ccc(OCC)cc2)sc(C(C)=O)c1C 1%
Cc1nn(-c2ccccc2)c2sc(C(=O)Nc3cccc(Cl)c3)cc12 -8.02%
COc1cc2nc(NCCc3ccccc3)n3nc(-c4cccnc4)nc3c2cc1OC -0.332%
COC(=O)c1ccc2c(=O)n(CCCCCC(=O)N3CCN(c4cc(C)ccc4C)CC3)c(=O)[nH]c2c1 -27.7%
Cc1ccc(C)c(N2CCN(C(=O)CCS(=O)(=O)c3cc(Br)cc4c3N(C(=O)C3CC3)CC4)CC2)c1 0.0604%
COc1cc(NC(=O)CCc2c(C)nc3c(-c4ccc(F)cc4)c(C)nn3c2C)cc(OC)c1OC 1.8%
COc1ccc(CNC(=O)C(Cc2ccccc2)NS(=O)(=O)c2ccc3c(c2)CCN3C(C)=O)cc1 (centres undefined) -1.05%
CCCSc1ncc(Cl)c(C(=O)N2CCN(c3cccc(Cl)c3)CC2)n1 0.16%
CCOc1ccc(NC(=O)CC2C(=O)N(c3ccc(OC)cc3)C(=O)N2C2CCCCC2)cc1 (centres undefined) -18.1%
CCc1ccc2occ(CC(=O)Nc3ccc(OC)c(Cl)c3)c2c1 3.19%
Cc1nc(SCC(=O)Nc2ccc(C)c(Cl)c2)cc(-c2ccccc2)n1 0.444%
CCOc1ccc(C(=O)Oc2c(Sc3ccccc3)c(C)nn2C(C)(C)C)cc1OCC 0.36%
COc1ccc(CN(Cc2ccco2)C(=O)COc2ccccc2OC)cc1 3.82%
CC(=O)c1ccc(NC(=O)Nc2sc3nc4n(c(=O)c3c2C)CCC(C)CC4)cc1 (centres undefined) 0.468%
CCc1ccccc1-n1cnc2cc(C(=O)NC3CCCCCC3)ccc21 -5.13%
O=C(Nc1ccccc1Cl)[C@H](CSCc1ccccc1)N1Cc2ccccc2C1=O -11.8%
COc1ccccc1N1CCN(S(=O)(=O)c2ccc(F)c(C(=O)Nc3ccc(Cl)cc3C(F)(F)F)c2)CC1 1.25%
CC(C)c1ccc(CNC(=O)c2ccc(N3CCCC3)c(NC(=O)NCc3ccccc3)c2)cc1 0%
O=C(c1ccc2c(c1)CCN2S(=O)(=O)c1ccccc1)N1CCN(c2ccccc2F)CC1 -1.95%
CSc1ccc(-c2nc3cccc(C)n3c2Nc2ccc3c(c2)OCO3)cc1 10.7%
O=C(CN1C(=O)CSc2ccc(S(=O)(=O)N3CCCC3)cc21)NCc1ccccc1Cl 0.556%
CC(=O)N1CCCc2cc(S(=O)(=O)N3CCCC(C(=O)NC(C)C)C3)ccc21 (centres undefined) -1.07%
Cc1ccc(OCC(=O)Nc2c(C(=O)c3ccc(Cl)cc3)oc3ccccc23)cc1C 9.25%
CCOc1ccc(C2c3c(oc4ccc(C)cc4c3=O)C(=O)N2CCCN(C)C)cc1OC (centres undefined) -11.1%
Cc1cc(-c2ccc(S(=O)(=O)Nc3ccc(Cl)cc3)cc2)on1 -7.38%
CC(C)Oc1ccc(CNC(=O)c2sc3ncccc3c2-n2cccc2)cc1 -8.44%
COc1ccc(-n2nc(C(=O)Nc3ccc(C(C)=O)cc3)nc2-c2ccccc2)cc1 -0.0178%
COc1ccc(-c2nnc(SCCOc3ccccc3C)o2)cc1OC 4.93%
Cc1cn(C)c(CC(=O)Nc2ccc(F)cc2Cl)c1C(=O)O -0.837%
O=S(=O)(c1ccc(Cl)cc1)c1nc(-c2cccs2)oc1SCc1ccccc1F -9.96%
Cc1cc(C)cc(OCCSc2nc3ccc(NC(=O)COc4ccccc4)cc3s2)c1 0.52%
Cc1ccc(OCC(=O)Nc2nonc2-c2ccc(Br)cc2)cc1C -0.155%
CCOC(=O)C(CC)N1CCN(Cc2ccc(F)cc2)C(=O)C1=O (centres undefined) 0%
COc1ccc(-c2ccc(NS(=O)(=O)c3cc(C)c(C)cc3C)cc2)nn1 2.87%
O=C(Nc1nc2c(F)cccc2s1)c1ccc(S(=O)(=O)N2CCCc3ccccc32)cc1 4.01%
CCn1nc(C)c2c(-c3ccccc3)cc(=O)n(C(C)C(=O)Nc3cc(C)ccc3C)c21 (centres undefined) -11.9%
CCc1ccc(NC(=O)Cn2nc(SC)c(S(=O)(=O)c3ccc(OC)cc3)c2N)cc1 -22.2%
CCOC(=O)c1c(NC(=O)C2c3ccccc3Oc3ccccc32)sc2c1CCC(CC)C2 (centres undefined) 1.22%
